We go through 20 compounds from article PMC13083723 (Patterns, 2026).

In all, about 5,400 compounds went through this assay and about 190 (3.5%) showed an effect of 50% or more. The list shows a part of the results. Non-standard residues stand in square brackets, D forms with d. Residues, ends and D or L forms follow the SMILES beside them.

The subject of this experiment is Vero-E6. Kind of experiment: primary screen, phospholipidosis by LipidTOX staining; higher = more effect of the substance. The conditions noted are these: 10 µM. The gist of the method: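 Drug-induced phospholipidosis detected with HCS LipidTOX Red reagent in Vero-E6 cells. Compounds tested at 10 μM, with amiodarone (10 μM) as positive control and DMSO (0.1 v/v %) as vehicle.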
`C[N+](C)(C)CC(O)CC(=O)O` (centres unmarked): the result_ITMP is recorded as -4.35%.

For the compound `N=C(N)c1ccc(/N=N/Nc2ccc(C(=N)N)cc2)cc1`, the result_ITMP came to 17.5%.

On to `C=CCN1CC[C@]23c4c5ccc(O)c4O[C@H]2[C@@H](OCCOCCOCCOCCOCCOCCOCCOC)CC[C@@]3(O)[C@H]1C5`, for which the result_ITMP is listed as -0.14%.

`CS(=O)(=O)Nc1c(O)ccc2c1CCCC2C1=NCCN1` (centres unmarked): the result_ITMP is -5.3%.

Take `CCCCn1c(=O)c2[nH]c(C34CC5CC(CC3C5)C4)nc2n(CCCO)c1=O`: the result_ITMP stood at 0.45%.

As to `CC(C)C[C@H](NC(=O)N1CCCCCC1)C(=O)N[C@H](Cc1cn(C)c2ccccc12)C(=O)N[C@H](Cc1ccccn1)C(=O)O`, the result_ITMP is given as -2.08%.

`O=C(O)c1ccc2nc(-c3cc(Cl)cc(Cl)c3)oc2c1`: the result_ITMP is 0.19%.

As for `OCCn1cc(-c2cnc3nnn(Cc4ccc5ncccc5c4)c3n2)cn1`, the result_ITMP is given as 0.98%.

In the case of `CC1=C(/C=C/C(C)=C/C=C/C(C)=C/CO)C(C)(C)CCC1`, the result_ITMP is recorded as -1.23%.

As for `C[C@H](NC(=O)[C@@H](Cc1c[nH]c2ccccc12)NC(=O)[C@@H](N)Cc1cnc[nH]1)C(=O)N[C@@H](Cc1c[nH]c2ccccc12)C(=O)N[C@H](Cc1ccccc1)C(=O)N[C@@H](CCCCN)C(N)=O` (H-H[dW]AW[dF]K-NH2), the result_ITMP is on record as -2.53%.

As to `Cc1ncc([N+](=O)[O-])n1CC(C)O` (centres unmarked), the result_ITMP is recorded as -1.93%.

With `CCNCc1cc(C(C)(C)C)c(O)c(C(C)(C)C)c1`, the result_ITMP is recorded as 9.53%.

In the case of `Cc1c(NC(=O)c2cc3c(s2)CCCC3)cccc1-c1cn(C)c(=O)c(Nc2ccc(C3C(=O)N(C)CCN3C)cc2)n1` (racemic), the result_ITMP is -0.03%.

Take `Cc1[nH]c(=O)c(C#N)cc1-c1ccc2nccn2c1`: the result_ITMP is -2.55%.

On to `CN(C(=O)Cc1ccc(Cl)c(Cl)c1)[C@H](CN1CCCC1)c1ccccc1`, for which the result_ITMP was found to be 53.5%.

As for `COC[C@H]1OC(=O)c2coc3c2[C@@]1(C)C1=C(C3=O)[C@@H]2CCC(=O)[C@@]2(C)C[C@H]1OC(C)=O`, the result_ITMP was -2.98%.

For the compound `NC(=O)c1cccc(-c2cccc(OC(=O)NC3CCCCC3)c2)c1`, the result_ITMP is listed as -5.98%.

In the case of `CC(=O)O[C@H]1C(=O)[C@@]2(C)[C@H]([C@H](OC(=O)c3ccccc3)[C@]3(O)C[C@H](OC(=O)[C@H](O)[C@@H](NC(=O)c4ccccc4)c4ccccc4)C(C)=C1C3(C)C)[C@]1(OC(C)=O)CO[C@@H]1C[C@@H]2O`, the result_ITMP was -1%.

On to `O=c1nc[nH]c2c1cnn2[C@@H]1O[C@H](CO)[C@@H](O)[C@H]1O`, for which the result_ITMP is reported as 2.43%.

With `COc1c(-c2ccc3cc(NS(C)(=O)=O)ccc3c2)cc(-n2ccc(=O)[nH]c2=O)cc1C(C)(C)C`, the result_ITMP is reported as 1.09%.
